According to the supplement of paper PMC10126150:
Values marked as one replicate rest on one cluster of the flow cell; about a third of the high ones do not repeat.

Test system: ATP
Test: switch fluorescence ratio, 500 uM ATP over buffer (Cy3 cluster intensity, sum of 5 cycles each) (fold (ratio)); higher = stronger signal-on switching upon ATP binding; sequences stand for … in TCGTCGGCAGCGTCAGATGTGTATAAGAGACAGTTTTTTTTTTTTTTTTTTTTTTTTT…TC
Conditions: aptamer strand: ATP DNA aptamer (quencher-CACCTGGGGGAGTATTGCGGAGGAAGG + anchor), 100 nM annealed; ATP concentration: 500 uM; one replicate
Summary of the method: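 Imaging in selection buffer was followed by imaging after 15 min with 500 uM ATP at 22 °C, for Cy3-labelled switching-strand clusters annealed to 100 nM quencher-labelled ATP aptamer on a modified Illumina MiSeq flow-cell. Five of these buffer/ATP cycles ran, separated by NaOH stripping and re-annealing. The fluorescence ratio per cluster is summed target-cycle over summed buffer-cycle Cy3 intensity, averaged per switch-domain sequence; clusters outside 100-1000 RFU were removed.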
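Note: ATP exposure 15 min at 22 °C before imaging.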

Sequence	switch fluorescence ratio
CCATATGAGA	1.06
ACTCACCCG	2.41
TGATTTTAAC	0.962
TTGTCTCAGG	0.979
ACTTGCCTAT	0.943
GGTTGACGTG	1.04
CTTTGTTCCC	1.01
TATAAATAAG	0.998
CTCATGGTTT	0.997
GGGTTCAGCC	0.994
TTTAATCTAG	1.02
ACCTTGCTGG	1.05
TCGTCCGGG	1.13
GGGTGCTAGC	1.05
CATAGAGTCG	1.04
CCACCAGATA	1.14
GACTCACATG	1.06
CGCGAGTGGG	1.03
GAACAATCGC	1.16
AGGGGGACTT	1.02
GGGGATATT	0.999
ATTTTAAGGA	1.05

Sequence	switch fluorescence ratio
GACATAGCTG	1.11
ATAGCAGATA	1.04
ATCTAATGAG	0.993
TTACATGTTA	1.05
GGTTGAGTTT	0.939
TTTTACGTTC	0.941
CACATGCTTC	1.05
TGGTTTGACG	1.01
CTGCTGGATG	1.03
CGCAACCTGA	1.46
GAGCCATGGG	0.96
TATGAGAGTA	0.981
GCGTCTGCAG	1.02
GGGGTATGCG	1.06
TACAAGGACA	1.04
CTCAAGCTTG	0.952
CAAACTACGG	1.08
TTTCCGCGGG	1.05
ACTATTAAA	1.01
ACCCTCGCGC	1.82
GACATATCGT	1.06
GCGTTCGTGC	0.994

Sequence	switch fluorescence ratio
ACGCCCATTC	1.3
GACAATGGGG	1.02
TTGCTGCTT	0.97
GGTCGAGACT	1
GTGTCAACGG	0.992
TTCCCCGTTA	1.03
AGGCCAGACT	1.04
ATCCATTGGT	0.977
CCGTAAAGCA	1.78
CAGAGCTTCC	2.27
AGACGTAAGT	1.04
TCAATGATGT	1.02
GATTACGATG	0.992
TTAACAAGAG	1.02
GTACTAAAAA	0.981
TTACCACGGG	0.958
CTGCTAGTTG	1.02
CTGCTAAGAC	1.69
GATGTACCTA	1.05
AGTCTATTC	0.991
GCACGCGGTT	1.01
GACGGACCTT	1.07

Sequence	switch fluorescence ratio
GAAGTCAAAT	1
AGAAACGTGG	1.02
CTTTGGTTTT	1.03
ACACATTACG	1.48
CTTGTCGACT	0.974
GGTGTGGGAA	0.984
TTTCGTTAGG	1.01
CGAGCCATTA	1
TAACACCTGG	1.07
GGTGAGGATA	0.929
TTTTATTGT	1.1
TTGCTGGT	1.03
TGGGGTTAG	0.994
AAATCGTGAC	1.13
GCATCGAGAG	0.986
TACTCAGAA	1.02
TCGGGGGAGA	1
CTTTACGAGA	1.02
TCCGACTTC	1.15
